For this data set the following is noted: Homo sapiens; pH 6.6; Thermal; DSC; ADA (N-(2-acetamide)iminodiaceticacid); reversible: Yes (>80%).

As to “Fibroblast growth factor 1 wild type (sequence not shown)”, the midpoint of thermal melting (Tm) was 39.8 °C and the “unfolding enthalpy (calorimetric)” value amounted to 65.7 kcal/mol.

For the origin of these results see FireProtDB (doi:10.1016/j.jmb.2009.08.026).
